The whole screen tested about 350,000 compounds, of which about 9,900 (2.8%) were called active. Inconclusive results, whose numbers are uncertain, are shown with a selection of clear calls. Calls follow the shape of the dose curve; as a rule, active = well fitted activation curve with a large enough effect; inconclusive = small, poorly fitted or top-dose-only effect; inactive = no such curve, though single readings can be large or run the other way. No potency is given beside an inconclusive call; the fits are too rough.
Experiment: A quantitative high throughput screen for small molecules that induce DNA re-replication in MCF 10a normal breast cells. Also: nearly all actives have a fitted effect of over 50% in size.
Settings: MCF 10A DNA re-replication, Hoechst nuclear intensity, 48 h; series mostly up to 46.1 µM
In the case of `COc1cc(C(=O)N/N=C/c2sccc2C)cc(OC)c1OC`, the Potency is reported as inconclusive [activator, full curve, poor fit].
In the case of `CCc1cc2ccccc2nc1SCC(=O)Nc1cc(C)on1`, the Potency is reported as inconclusive [activator, partial curve, poor fit].
With `CC(=O)c1cccc(OCC(=O)N(CCC2=CCCCC2)c2c(N)n(Cc3ccccc3)c(=O)[nH]c2=O)c1` the Potency was inconclusive [activator, partial curve, poor fit].
For `COc1cc(NC(=O)c2ccc(C)cc2C)ccc1NC(=O)c1cc2ccccc2o1`, the Potency was active: 9.2 µM.
For `COc1ccc(Nc2nc(-c3ccc(OC)cc3)cs2)cc1`, the Potency was “inactive”.
In the case of `FC(F)(F)c1ccc(Cl)c(N/N=C/c2ccc(N3CCOCC3)s2)c1`, the Potency is reported as inconclusive [activator, single point].
In the case of `CCSc1nc(N2CCCCC2)c2c(c1C#N)CCCC2`, the Potency is reported as inconclusive [activator, single point].
With `COc1cc(C(=O)NCCCNc2nc3cc(C)c(C)cc3cc2C#N)cc(OC)c1OC` the Potency was inconclusive [activator, single point].
For `CN(C)CCCN(C(=O)c1ccc2c(c1)CCCC2)c1nc2ccc(Cl)cc2s1`, the Potency was inconclusive [activator, single point].
In the case of `Cc1ccc(-c2nc3ncccc3o2)cc1NC(=O)c1ccc2c(c1)OCO2`, the Potency is reported as “inactive”.
For `C(=N\n1cnnc1)/c1ccc2c(c1)OCO2`, the Potency was “inactive”.
In the case of `Cc1ccc(C(=O)OC(C(=O)O)C(OC(=O)c2ccc(C)cc2)C(=O)O)cc1` (configuration not stated), the Potency is reported as “inactive”.
For `COc1ccc(/C=N/NC(=S)Nc2ccccc2)cc1COc1ccccc1F`, the Potency was “inactive”.
In the case of `CCOC(=O)c1c(CC(C)C)csc1NC(=O)CCl`, the Potency is reported as inconclusive [activator, partial curve, poor fit].
In the case of `CC1=NN(C(N)=S)C(=O)C1N=Nc1cccc(Cl)c1` (configuration not stated), the Potency is reported as “inactive”.
In the case of `Cc1cccc(N2O[C@H]3C=CC2CCCC3)n1`, the Potency is reported as “inactive”.
In the case of `Cn1c(-c2cnn(-c3ccccc3)c2-n2cccc2)n[nH]c1=S`, the Potency is reported as inconclusive [activator, single point].
With `CC(C)=NNc1nc(-c2ccc([N+](=O)[O-])cc2)cs1` the Potency was “inactive”.
With `COc1cc2c(C#N)c(N3CCCC3)nc(N)c2c(N)n1` the Potency was “inactive”.
For `Cc1ccnc(NC(=O)C2CCN(S(=O)(=O)c3ccc(C)c(C)c3)CC2)c1`, the Potency was “inactive”.
With `CC1(C)OC(=O)C(=Cc2ccc(-c3ccc(Cl)c(C(=O)O)c3)o2)C(=O)O1` the Potency was “inactive”.
With `CCc1ccc(-c2cc(C(=O)N/N=C/c3c[nH]c4ccccc34)[nH]n2)cc1` the Potency was active: 20.6 µM.
Potency is read from the fitted curve at half-maximal effect; tags tell the direction and shape of the fitted curve.
